The other results are listed elsewhere or left out.
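Also: jurkat cells carrying a lentiviral library of mutant zinc finger degrons fused to EGFP plus mCherry, mCherry+ cells FACS sorted, degron abundance counted by next-generation sequencing.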

This test concerns the target no compound (DMSO). Nature of the test: log2 fold change of degron read counts, EGFP-low vs EGFP+ sorted cells; higher = lower degron-EGFP level without compound (poor expression or instability). Conditions: compound: DMSO control; 18 h.
With FVCPVCGATFTQKGNLLRHIKL, the “log2 fold change of degron read counts” value was -1.47.

On to LICPICGFACTQKGNLLRHIKL, for which the “log2 fold change of degron read counts” value is 1.02.

Turning to FNCPICGRNFTQKGNLLRHIKL, the “log2 fold change of degron read counts” value was -0.557.

On to LDCNQCGFLCTQKGNLLRHIKL, for which the “log2 fold change of degron read counts” value was found to be 1.38.

As for FLCEVCGAQFTQKGNLLRHIKL, the “log2 fold change of degron read counts” value was -1.99.

Consider FFCNQCGRIFTQKGNLLRHIKL, for which the “log2 fold change of degron read counts” value is 1.28.

As for FVCEICGRDFTQKGNLLRHIKL, the “log2 fold change of degron read counts” value was -2.35.

For FECPVCGAEFTQKGNLLRHIKL, the “log2 fold change of degron read counts” value was -1.74.

As to FECNVCGAHFTQKGNLLRHIKL, the “log2 fold change of degron read counts” value is -2.44.

As to FNCDICGAMFTQKGNLLRHIKL, the “log2 fold change of degron read counts” value is -0.623.

In the case of FTCPICGHDFTQKGNLLRHIKL, the “log2 fold change of degron read counts” value is -1.71.

FNCPQCGAQFTQKGNLLRHIKL: the “log2 fold change of degron read counts” value is -0.705.

With FGCDVCGAGFTQKGNLLRHIKL, the “log2 fold change of degron read counts” value was -1.07.

FHCEICGAFFTQKGNLLRHIKL: the “log2 fold change of degron read counts” value is -1.2.

Turning to FCCNQCGRSFTQKGNLLRHIKL, the “log2 fold change of degron read counts” value is -0.178.

Take LMCNQCGFQCTQKGNLLRHIKL: the “log2 fold change of degron read counts” value is 0.429.

FTCPVCGAHFTQKGNLLRHIKL: the “log2 fold change of degron read counts” value was -0.102.

Regarding LGCPICGFACTQKGNLLRHIKL, the “log2 fold change of degron read counts” value was determined as 1.32.

In the case of FDCNVCGAHFTQKGNLLRHIKL, the “log2 fold change of degron read counts” value is -1.92.

Turning to FLCNVCGACFTQKGNLLRHIKL, the “log2 fold change of degron read counts” value is -0.413.

On to FTCEICGRAFTQKGNLLRHIKL, for which the “log2 fold change of degron read counts” value was -1.95.

Consider FMCDICGAEFTQKGNLLRHIKL, for which the “log2 fold change of degron read counts” value is -2.43.

Consider FHCDVCGASFTQKGNLLRHIKL, for which the “log2 fold change of degron read counts” value is -1.56.

With FECPICGAMFTQKGNLLRHIKL, the “log2 fold change of degron read counts” value was -0.623.

Take LNCNQCGFECTQKGNLLRHIKL: the “log2 fold change of degron read counts” value was -0.454.

As for FCCNQCGAFFTQKGNLLRHIKL, the “log2 fold change of degron read counts” value was -0.249.

For the sequence LECNQCGFVCTQKGNLLRHIKL, the “log2 fold change of degron read counts” value was -0.879.

Regarding FMCNVCGAPFTQKGNLLRHIKL, the “log2 fold change of degron read counts” value is -0.325.

On to FSCNQCGARFTQKGNLLRHIKL, for which the “log2 fold change of degron read counts” value worked out at 0.321.

In the case of FRCEQCGANFTQKGNLLRHIKL, the “log2 fold change of degron read counts” value is -0.892.

Consider FKCEICGHDFTQKGNLLRHIKL, for which the “log2 fold change of degron read counts” value is -2.22.

As to FSCPICGRMFTQKGNLLRHIKL, the “log2 fold change of degron read counts” value is -0.0917.

Regarding FGCPICGAFFTQKGNLLRHIKL, the “log2 fold change of degron read counts” value is 0.285.

Regarding FCCNQCGHAFTQKGNLLRHIKL, the “log2 fold change of degron read counts” value was -0.0218.

With FFCEVCGARFTQKGNLLRHIKL, the “log2 fold change of degron read counts” value is -1.71.

As to FICEICGRRFTQKGNLLRHIKL, the “log2 fold change of degron read counts” value was -1.14.

For FMCNQCGRDFTQKGNLLRHIKL, the “log2 fold change of degron read counts” value was -0.797.

Regarding LQCNQCGFGCTQKGNLLRHIKL, the “log2 fold change of degron read counts” value was -0.276.

Regarding FTCSVCGHDFTQKGNLLRHIKL, the “log2 fold change of degron read counts” value was -2.02.

Consider FACEICGHTFTQKGNLLRHIKL, for which the “log2 fold change of degron read counts” value is -2.32.

With FFCPICGALFTQKGNLLRHIKL, the “log2 fold change of degron read counts” value amounted to 1.12.

Regarding FVCEICGAMFTQKGNLLRHIKL, the “log2 fold change of degron read counts” value is -1.3.

In the case of LVCEICGFVCTQKGNLLRHIKL, the “log2 fold change of degron read counts” value is -0.347.

As to FKCEVCGAWFTQKGNLLRHIKL, the “log2 fold change of degron read counts” value is -0.58.

As for FECDICGAPFTQKGNLLRHIKL, the “log2 fold change of degron read counts” value was -1.21.

Regarding FHCEVCGARFTQKGNLLRHIKL, the “log2 fold change of degron read counts” value was -1.75.

In the case of FKCNVCGAKFTQKGNLLRHIKL, the “log2 fold change of degron read counts” value is -0.608.

Regarding FRCDICGASFTQKGNLLRHIKL, the “log2 fold change of degron read counts” value was -1.56.

As for FRCPICGRRFTQKGNLLRHIKL, the “log2 fold change of degron read counts” value was determined as 0.0701.

With FSCNICGADFTQKGNLLRHIKL, the “log2 fold change of degron read counts” value is -1.25.

For the origin of these results see the supplement of paper PMC12645437, “Orthogonal IMiD-Degron Pairs Induce Selective Protein Degradation in Cells” (ACS Chemical Biology, 2025).
